# From PubChem BioAssay AID662 (National Center for Advancing Translational Sciences (NCATS), 2007)
# Screen size: about 71,000 compounds; about 1,800 (2.5%) were called active. The shares of active, inactive and inconclusive entries below differ from those in the screen. Calls come from the whole dose curve; as a rule, active = well fitted activation curve with a large enough effect in the signal ratio, with a control signal flat (not every such curve was filed as active); inconclusive = small, poorly fitted or top-dose-only effect, or effect the other way, or a change in a side signal; inactive = flat fitted curve, though single readings scatter; the % refers to the signal ratio. Potencies beside an inconclusive call are fits to weak or partial responses and may not hold up.
# Experiment: Cell signaling CRE-BLA (Fsk stim); for activity change, negative = inhibition: % of control where 0% means no effect
# Details: CHO CRE-bla reporter (cAMP response element driving beta-lactamase), forskolin EC10, beta-lactamase ratio; activity change, negative = inhibition: at 38.2 µM (top of the series) unless noted
# In short: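 CHO CRE-bla cells, overnight plating in Opti-MEM with 0.5% dialyzed FBS; cpd titration + EC10 NKH 477, 3 h 37 °C; CCF4 2 h RT; ex 405/em 460 vs 530 ratio → %Activity, AC50.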
# Potency is the fitted concentration of half-maximal effect; tags give direction and shape of the fitted curve.
Structure (SMILES),Potency,"activity change, negative = inhibition"
N#Cc1nc(-c2ccccc2F)oc1NC1CCCCC1,"inconclusive: 3.98 µM [rising, partial curve]",–
CC(=O)Nc1ccc(NC(=O)CCC(=O)NCCO)cc1,–,inconclusive: 10.1% [at 7.6 µM]
O=C(Nc1ccccn1)NC1CCS(=O)(=O)C1 (centres undefined),–,inconclusive: -18.7% [at 7.6 µM]
CCOC(=O)C1CCN(C(=O)Nc2ccccc2Cl)CC1,–,inconclusive: -0.71% [at 7.6 µM]
CN(C)c1ccnc2sc3c(=O)n(-c4ccccc4)cnc3c12,inactive,–
CCn1c(SCC(=O)Nc2ccccc2N2CCCCC2)nc2c1c(=O)n(C)c(=O)n2C,active: 10 µM,–
CCOC(=O)c1cc(C(=O)c2cc(F)ccc2O)coc1=N,"inconclusive: 3.16 µM [falling, single point]",–
c1nc(NCC2CCCO2)c2[nH]cnc2n1 (centres undefined),inactive,–
Clc1ccc(-c2nnc(SCc3ccon3)o2)c(Cl)c1,–,inconclusive: 4.2%
Cc1nc2cnc(Oc3ccccc3)nc2n(Cc2cccs2)c1=O,active: 12.6 µM,–
CCc1cc(=O)oc2cc(OC(C)C(=O)O)c(Cl)cc12 (centres undefined),inactive,–
CCOC(=O)c1cc(-c2nnc(SCC(=O)Nc3ccc(F)cc3)o2)c(C)nc1C,"inconclusive: 5.01 µM [falling, single point]",–
COC(=O)c1c(NC(C)=O)sc2c1CCCC2,"inconclusive: 10 µM [rising, single point]",–
COn1c(SCc2cccnc2)nc2ccccc2c1=O,"inconclusive: 12.6 µM [rising, single point]",–
Oc1ccc(C(c2nnnn2C2CCCC2)N2CCc3ccccc3C2)cc1 (centres undefined),–,inconclusive: -17.3%
O=C(CSc1ncn[nH]1)NCCCc1ccccc1,"inconclusive: 5.01 µM [falling, single point]",–
COC(=O)c1c(N)n(-c2ccc(NC(C)=O)cc2)c2nc3ccccc3nc12,"inconclusive: 12.6 µM [rising, partial curve]",–
CCc1c(C(=O)Nc2ccc(S(=O)(=O)N3CCOCC3)cc2)csc1C,–,inconclusive: 9.17%
COCCCn1c2nc3ccccc3nc2c2c(=O)n(-c3ccccc3OC)cnc21,active: 3.98 µM,–
O=C(O)CCN1Cc2ccccc2C1=O,"inconclusive: 3.16 µM [falling, single point]",–
Cc1ccccc1CS(=O)(=O)Cc1ccc(C(=O)NCC2CCCO2)o1 (centres undefined),–,inconclusive: 15.3%
COc1cccc(-c2cc(C(=O)NC3CCCC3)no2)c1,–,inconclusive: -3.42%
CCCS(=O)(=O)N1CCC(C(=O)NCCN2CCC(Cc3ccccc3)CC2)CC1,"inconclusive: 12.6 µM [falling, partial curve, poor fit]",–

Structure (SMILES),Potency,"activity change, negative = inhibition"
CCOc1cc2c(cc1OCC)C(C(=O)O)C(c1cc(OC)c(OC)c(OC)c1)N(C)C2=O (centres undefined),–,inconclusive: -3.11%
CCc1ccc(O)c(N=Cc2ccccc2O)c1,inactive,–
COc1ncc2nc(C)c(=O)n(C3CC3)c2n1,–,inconclusive: 24.3%
Cc1ccsc1C(=O)OCc1csc(-c2ccccc2)n1,–,inconclusive: -20.1%
Cc1ccc(C)c(NC(=O)CSc2nnc(-c3ccncc3)n2N)c1,–,inconclusive: 13.2%
CCOC(=O)COc1ccc2nsnc2c1,–,inconclusive: 0.844%
CN(C(=O)c1ccco1)c1nnc(C23CC4CC(CC(C4)C2)C3)s1,–,inconclusive: 29.9%
COc1ccccc1-c1cc(C2CC2)nc(N)c1C#N,active: 10 µM,–
Cc1ccc(N(CC(=O)N2CCc3ccccc32)C2=NC(=O)CS2)cc1,–,inconclusive: -13.2%
Cc1cnc(NC(=O)CN(C)S(=O)(=O)c2ccc(Cl)cc2)s1,–,inconclusive: -15.1%
CCCCCn1c(N(C)Cc2ccccc2)nc2c1c(=O)[nH]c(=O)n2C,active: 10 µM,–
CNC(=O)c1cc2c(cn1)[nH]c1ccccc12,–,inconclusive: 27.1%
NC(N)=NNC(=O)C(=O)O,"inconclusive: 5.01 µM [rising, single point]",–
CCc1nc(NCCN2CCOCC2)c2oc3ccccc3c2n1,"inconclusive: 10 µM [rising, single point]",–
C[C@@H](/C=C\c1cccc(Oc2ccc(F)cc2)c1)N(O)C(N)=O,–,inconclusive: 28.8%
Cc1cc(Nc2ccc(Cl)cc2)n2nnnc2n1,"inconclusive: 25.1 µM [rising, single point]",–
C=CCn1c(SCn2nnc3ccccc3c2=O)nc2scc(-c3cccs3)c2c1=O,active: 2 µM,–
O=C(CSc1nc2ccccc2o1)NC(=O)NCc1ccco1,–,inconclusive: -1.26%
CCc1c(C)c2nncn2[nH]c1=O,inactive,–
Cc1cccc(N2CCN(c3nnnn3-c3ccccc3)CC2C)c1 (centres undefined),inactive,–
COc1ccc(CCn2c(SCC(=O)Nc3cc(C)on3)nc3ccsc3c2=O)cc1OC,–,inconclusive: 15.6%
CCn1nc(NC(=O)c2ccncc2)c2cc3cc(C)ccc3nc21,active: 2 µM,–
O=c1[nH]c(CN2CCN(C/C=C/c3ccccc3)CC2)nc2ccccc12,inactive,–

Structure (SMILES),Potency,"activity change, negative = inhibition"
CCOc1ccccc1N1CCN(C(=O)c2cc[n+]([O-])cc2)CC1,–,inconclusive: -10.7%
CC1Oc2ccccc2N(CC(=O)c2ccccc2)C1=O (centres undefined),inactive,–
Brc1cnc(N2CCOCC2)nc1N1CCCCC1,–,inconclusive: 24.8%
Cc1ccc(CNc2oc(-c3cccs3)nc2C#N)cc1,"inconclusive: 5.01 µM [rising, partial curve]",–
COc1ccccc1-c1ccc2ncnc(Nc3ccccc3)c2c1,–,inconclusive: -24.2%
COc1ccccc1/C=c1\sc2nc(-c3cccs3)nn2c1=O,inactive,–
N=C(N)c1ccc(/C=C\c2ccc(C(=N)N)cc2)cc1,–,inactive: -5.2% [at 7.6 µM]
Nc1ccc(-n2c(N)c(C(=O)NCc3ccc4c(c3)OCO4)c3nc4ccccc4nc32)cc1,active: 12.6 µM,–
O=C(O)C(=O)/C=C(\O)c1ccc(Br)cc1,–,inactive: -3.75% [at 7.6 µM]
COCCn1c(SC(C)C(=O)Nc2ccc3c(c2)OCCO3)nc2ccccc2c1=O (centres undefined),active: 12.6 µM,–
C=CCn1c(=O)c(C(=O)Nc2ccccc2C(=O)OCC)c(O)c2ccccc21,inactive,–
CC(C)OC(=O)c1nnn(-c2nonc2N)c1CN1CCCCCC1,–,inconclusive: -20.1%
[O-][n+]1c(CN2CCCCC2)nc2cccc3c2c1-c1ccccc1-3,–,inactive: -9.69% [at 7.6 µM]
Cn1cc(-c2nc3cncnc3n(-c3ccccc3)c2=O)c2ccccc21,"inconclusive: 10 µM [rising, partial curve]",–
Cc1ccc(C(=O)NCc2ccc(Cl)c(Cl)c2)o1,inactive,–
COc1ccc(CCNC2CC(=O)N(CCc3ccc(OC)c(OC)c3)C2=O)cc1OC (centres undefined),–,inconclusive: 20.2%
Nc1ncn([C@@H]2O[C@H](CO)[C@@H](O)[C@H]2O)c(=O)n1,–,inconclusive: -14.9%
COc1ccc(CN(CCN(C)C)c2ccccn2)cc1,–,inconclusive: -21.6%
COc1ncc2nc(CCc3ccccc3)c(=O)n(CCC#N)c2n1,"inconclusive: 12.6 µM [rising, single point]",–
COc1cccc(C(=O)N2CCN(S(=O)(=O)Cc3ccccc3)CC2)c1,inactive,–
O=C(Nc1nnc(/N=C/c2ccco2)s1)c1ccc(F)cc1,–,inconclusive: 15.5%
COc1ccc(N(CC(=O)Nc2ccc(C)cn2)S(=O)(=O)c2c(C)noc2C)cc1,–,inconclusive: -4.61%
Cc1[nH]c2ccccc2c1C(=O)CN1CCCCC1C (centres undefined),–,inconclusive: 2.49%

Structure (SMILES),Potency,"activity change, negative = inhibition"
CC=O,inactive,–
COCCCn1c(=N)c(C(=O)NCC2CCCO2)cc2c(=O)n3cccc(C)c3nc21 (centres undefined),–,inconclusive: 20.3%
CCOC(=O)CSc1nc2c(c(=O)[nH]c(=O)n2C)n1C/C=C(/C)Cl,"inconclusive: 12.6 µM [rising, partial curve]",–
CCOC(=O)N1CCN(C(=O)CN(Cc2ccccc2)S(C)(=O)=O)CC1,inactive,–
CC(C)C[C@H](NC(=O)NCc1ccc(Cl)cc1)C(=O)O,inactive,–
Cn1c(=O)c2cn(Cc3ccc(Cl)cc3)cc2n(C)c1=O,inactive,–
C/C(CC(O)c1ccc2ccccc2n1)=N/O (centres undefined),–,inconclusive: 26.8% [at 7.6 µM]
Cc1ccc(-n2c(=O)[nH]cc(C(=O)Nc3ccc4c(c3)OCO4)c2=O)cc1C,–,inconclusive: 22.6%
O=C1CC(N2CCC(O)(c3ccc(Cl)cc3)CC2)C(=O)N1Cc1ccc(N2CCCC2=O)cc1 (centres undefined),inactive,–
COc1cc(C(C)=O)ccc1OCC(O)CN1CCN(S(=O)(=O)c2ccccc2)CC1 (centres undefined),inactive,–
CCOC(=O)N1CCN(C(=O)N2CCOCC2)CC1,–,inconclusive: 7.74%
CCCCCCCN,inactive,–
COCc1cc(C)n(CC(=O)Nc2ccccc2OC)c(=O)c1C#N,inactive,–
CC(=O)N1CCc2cc(S(=O)(=O)CCC(=O)N3CCN(c4ccccn4)CC3)ccc21,–,inconclusive: 8.61%
COc1ccc(OC)c2[nH]c(=O)c(CCNC(=O)c3ccc(S(=O)(=O)N4CCCC4)cc3)cc12,"inconclusive: 12.6 µM [rising, single point]",–
COc1ccc2cc(CCNC(=O)c3ccc4c(c3)OCO4)c(=O)[nH]c2c1,"inconclusive: 10 µM [rising, partial curve]",–
O=c1c2ccccc2c(C=NC2CCS(=O)(=O)C2)c(O)n1-c1ccccc1 (centres undefined),–,inconclusive: 19.4%
CC1CCCN(c2nc3c(c(=O)[nH]c(=O)n3C)n2CCCc2ccccc2)C1 (centres undefined),–,inconclusive: 17.6% [cytotoxic]
OC1CCCN(Cc2cccc3ccccc23)C1 (centres undefined),–,inconclusive: 23.3% [at 7.6 µM]
CC(=O)c1cccc(NC(=O)NCc2ccco2)c1,–,inconclusive: -6.12%
